From PubChem BioAssay AID485344 (National Center for Advancing Translational Sciences (NCATS), 2010)
The campaign covered roughly 340,000 compounds. About 6,900 (2%) were called active. No stated cut-off is given here; in the data, active means inhibition above about 30%; inactive means below that, where a call was filed. The entries are a selection whose mix differs from that of the whole data set. The source gives no active or inactive call for entries shown without one.
Further: 0% is about no effect.

The compounds below were run against D(2) dopamine receptor (Homo sapiens) (UniProt P14416) (assay: HTS Assay for Allosteric Antagonists of the Human D2 Dopamine Receptor: Primary Screen for Antagonists). Settings: HEK293 TREx D2 cells, calcium flux, dopamine EC80; at 10 µM; stronger effect = higher value.
UniProt P14416, sequence (P14416 whole entry, looked up): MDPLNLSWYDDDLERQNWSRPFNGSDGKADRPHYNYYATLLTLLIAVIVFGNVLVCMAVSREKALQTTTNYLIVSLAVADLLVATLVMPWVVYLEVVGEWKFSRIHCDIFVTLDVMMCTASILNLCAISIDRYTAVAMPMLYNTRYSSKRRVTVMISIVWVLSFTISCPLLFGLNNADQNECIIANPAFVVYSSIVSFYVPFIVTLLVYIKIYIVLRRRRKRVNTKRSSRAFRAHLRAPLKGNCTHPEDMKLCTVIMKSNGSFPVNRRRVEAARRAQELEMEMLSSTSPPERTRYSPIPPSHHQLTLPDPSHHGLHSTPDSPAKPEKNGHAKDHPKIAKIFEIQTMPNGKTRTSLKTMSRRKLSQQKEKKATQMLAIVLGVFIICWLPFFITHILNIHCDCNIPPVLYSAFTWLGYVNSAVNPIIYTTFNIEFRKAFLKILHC
Procedure, shortened: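 Compounds are added to dye-loaded, induced HEK293 T-REx cells coupled to calcium release via D2; after a 3 min kinetic read an EC80 dopamine stimulus is given and fluorescence is recorded for 3 more min.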
Compound `COc1cc(NC(=O)CSc2ccc(-c3ccccn3)nn2)cc(OC)c1` has an inhibition of 12.5%. `CCOC(=O)c1nc(Nc2ccccc2CC)c2ccccc2n1` was tested, and the inhibition was active: 33.3%. With `O=C(CCn1ccc2cc(S(=O)(=O)N3CCCC3)ccc21)NCc1ccccc1Br` the inhibition was 12.8%. Compound `COc1ccc(C)cc1Nc1cc(C)nc(C)n1` has an inhibition of 8.77%. In the case of `O=C(CN1C(=O)c2cccnc2Oc2ccc(Cl)cc21)Nc1cccc(C(F)(F)F)c1`, the inhibition is reported as -19.5%. `CC(C)Oc1ccc(C(=O)Nc2c(C(=O)Nc3cccc(F)c3)oc3ccccc23)cc1` gave an inhibition of -25.4%. For `CC(=O)Nc1cccc(-n2cc3c(c2-c2ccccc2Cl)c(=O)n(C)c(=O)n3C)c1`, the inhibition was 13.6%. With `CCC(C(=O)N1CCN(c2ccccc2)CC1)n1c(C)c2cnn(-c3ccccc3)c(=O)c2c1C` (stereo not drawn) the inhibition was 14.1%. For `Cc1nnc(N2CCC(C(=O)NCCC(C)C)CC2)c2nn(-c3ccc(Cl)cc3)c(C)c12`, the inhibition was 12.9%. `CCOc1cc(Cl)c(S(=O)(=O)n2ccnc2)cc1Cl` gave an inhibition of -5.49%. `O=C(CN1CCN(c2ncccn2)CC1)NCc1ccc2c(c1)OCO2` was tested, and the inhibition was active: 37.1%. For `CCN(CC)c1ccc(NC(=O)CCCN2C(=O)C(c3ccccc3)Oc3cccnc32)c(C)c1` (stereo not drawn), the inhibition was -1.54%. For `O=C(NC1CCCC1)c1ccc2c(=O)n(Cc3ccccc3)c(SCc3cccc(F)c3)nc2c1`, the inhibition was 8.85%. In the case of `COC(=O)c1ccc(NC(=O)CN2C(=O)CC(c3ccccc3)Sc3ccccc32)cc1` (stereo not drawn), the inhibition is reported as 7.34%. In the case of `C=C(C)CSc1nc(-c2ccccc2)cc(-c2ccc(OC)cc2)c1C#N`, the inhibition is reported as 6.96%. `Cc1cc(C)n(C(C)CC(=O)Nc2ccc(C)c(N(C)C)c2)n1` (stereo not drawn) showed an inhibition of -7.89%. `Fc1ccccc1N1CCN(c2nc3ccccc3c3nc(-c4ccccc4)nn23)CC1` was tested, and the inhibition was 12.1%. In the case of `CSc1ccc(-c2nnc(NC(=O)c3ccc4c(c3)OCCO4)o2)cc1`, the inhibition is reported as -9.56%. `CCc1nc2nc(C)cc(Nc3cccc(C)c3C)n2n1` was tested, and the inhibition was -0.0522%. For `Cc1cccc(C2CC(=O)Nc3cc4c(cc32)OCO4)c1` (stereo not drawn), the inhibition was 13%. `CCc1ccc(NC(=O)CN2C(=O)C3(SCC(=O)N3c3ccc(F)c(F)c3)c3ccccc32)cc1` (stereo not drawn) gave an inhibition of -4.85%. Compound `COc1ccc(CNC(=O)CCc2c(C)c3cc4c(C)c(C)oc4cc3oc2=O)cc1OC` has an inhibition of -8.37%. For `CC(C)c1ccc(OCC(=O)N(Cc2cccs2)C2CCS(=O)(=O)C2)cc1` (stereo not drawn), the inhibition was -7.07%. `CCOc1ccc(NC(=O)/C(C#N)=C\c2ccc(-c3ccc(Cl)cc3)o2)cc1` showed an inhibition of -4.16%. `Cc1c(Cl)cccc1NC(=O)CCS(=O)(=O)c1ccc2c(c1)CC(=O)N2C` showed an inhibition of -3.16%. `O=C(CSc1n[nH]c(-c2ccc(F)cc2)n1)NCCc1ccccc1` was tested, and the inhibition was 2.67%. `Cc1cc(N2CCC(N(C)C3CCCC3)CC2)nc2cc(O)ccc12` was tested, and the inhibition was active: 47.8%. For `CCN(CC)CCNC(=O)c1c2c(nc3ccccc13)C(=O)N(C1CCCCC1)C2`, the inhibition was 1.65%. Compound `Cc1ccc(S(=O)(=O)NCCc2cn3ccsc3n2)c(C)c1` has an inhibition of 4.43%. With `Cc1ccccc1NC(=O)Cn1c(=O)n(Cc2ccc3c(c2)OCO3)c(=O)c2ccccc21` the inhibition was -0.794%. For `COc1cccc(NC(=O)Cn2cc(C(=O)c3ccc(C)cc3)c(=O)c3cc(OC)ccc32)c1`, the inhibition was -7.48%. Work on `COc1ccc(NC(=O)c2oc3ccccc3c2NC(=O)Cc2coc3c(C)c(C)ccc23)cc1` yielded an inhibition of -5.31%. In the case of `COc1ccccc1-c1cc(C(=O)NCc2ccccc2)c2c(-c3ccc(C)cc3)[nH]nc2n1`, the inhibition is reported as 14.2%. With `Cc1cc(NC(=O)CCC(=O)N(CCC(C)C)C(C(=O)NC2CCCC2)c2ccccc2C)no1` (stereo not drawn) the inhibition was active: 51.5%. `COc1ccc(-c2nc3cc(NC(=O)CSc4ccc(C)cc4)ccc3o2)cc1` showed an inhibition of -0.431%. `CCc1ccc(NC(=O)Cn2ccn(-c3ccc(C)c(C)c3)c(=O)c2=O)cc1` showed an inhibition of -12.3%. Compound `Cc1ccc(S(=O)(=O)c2nc(S(=O)(=O)c3ccccc3)sc2NCCCOC(C)C)cc1` has an inhibition of 10.7%. With `Cc1cccc(-c2nc3scc(CCNS(=O)(=O)c4ccc5c(c4)OCCO5)n3n2)c1` the inhibition was 9.48%. `Cc1cccn2c(=O)c(C(=O)NCc3cccc(F)c3)cnc12` gave an inhibition of 8.05%. For `CC1CCc2cc(F)ccc2N1C(=O)C12CCC(C)(C(=O)O1)C2(C)C` (stereo not drawn), the inhibition was active: 32%. `CCOc1ccc(CNC(=O)Cc2ccc(NC(=O)N3CCSc4ncccc43)cc2)cc1` was tested, and the inhibition was -1.61%. In the case of `Cc1ccc(Cl)cc1Nc1nn2c(=O)c3ccc(C(=O)NCc4ccc(F)cc4)cc3nc2s1`, the inhibition is reported as 9.29%. In the case of `CCCOc1ccc(-c2nc(SCC(=O)c3ccc(Cl)cc3)n[nH]2)cc1`, the inhibition is reported as -12.7%. `Cn1c(=O)c2sccc2n2c(CCC(=O)NCc3ccc(Cl)cc3)nnc12` gave an inhibition of 6.85%. Work on `CC(=O)c1ccc(N2CCN(C(=O)C3CCN(S(=O)(=O)c4cn(C)cn4)CC3)CC2)cc1` yielded an inhibition of 17.2%. With `CCOC(=O)N1CCc2c(sc3c2c(=O)n(-c2ccc(Cl)cc2)c(=O)n3CC(C)C)C1` the inhibition was 12.4%. `COc1ccc(Nc2c(-c3cccc(O)c3)nc3cnccn23)cc1` showed an inhibition of -8.55%. Compound `CCOC(=O)c1c(Nc2ccc(OC)cc2)nnc(-c2ccccc2)c1-c1ccccc1` has an inhibition of -0.395%. In the case of `CCOc1ccc(NC(=O)COc2ccc(S(=O)(=O)NC3CCCCC3)cc2)cc1`, the inhibition is reported as -5.21%. `CN1CCN(c2ncc3c(n2)CCN(Cc2ccc(Br)s2)C3)CC1` gave an inhibition of -18.8%. In the case of `COc1ccc(-c2csc(=Nc3ccccc3)n2CCO)cc1F`, the inhibition is reported as -3.36%. In the case of `COc1ccccc1N1CCN(CCN(C(=O)C2CCCCC2)c2ccccn2)CC1`, the inhibition is reported as active: 70.3%. Work on `Cn1nnnc1SCCNCc1cc(Br)ccc1OCc1ccccc1Cl` yielded an inhibition of -15.7%. With `Cc1ccc(C(=O)Nc2cccc3cccnc23)cc1Cl` the inhibition was -20.2%. `COc1cccc(OC)c1C(=O)NCCc1csc(-c2ccc(Cl)cc2)n1` gave an inhibition of -21%. In the case of `COC(=O)c1c(-c2cccs2)csc1NC(=O)COc1ccc(C)cc1`, the inhibition is reported as 16.8%. Compound `Cc1cccc2c1-c1sc(C(=O)N(C)c3cccc(Cl)c3)cc1CO2` has an inhibition of 3.63%. Compound `COc1ccc(C(CC(=O)Nc2ccc(C(C)=O)cc2)N2Cc3ccccc3C2=O)cc1` (stereo not drawn) has an inhibition of 8.35%. With `O=C(c1ccc2c(c1)N(Cc1cccc(F)c1)C(=O)c1ccccc1S2)N1CCCC1` the inhibition was 1.7%. `CC(C)c1cnc2c(c1SCC(=O)NCc1ccccc1Cl)c(=O)n(C)c(=O)n2C` gave an inhibition of -17.8%. In the case of `Cc1ccc(CN2C(=O)c3ccccc3CC2(C)C(=O)NC2CCCCC2)cc1` (stereo not drawn), the inhibition is reported as -1.99%. Work on `COc1ccc(NC(=O)NC2COc3ccccc3C2)cc1Cl` (stereo not drawn) yielded an inhibition of 7.18%. `Cc1cccc(N2CCN(C(=O)c3noc4c3COc3ccc(C)cc3-4)CC2C)c1` (stereo not drawn) gave an inhibition of -6.24%. For `CCOc1ccccc1C(=O)NC1(C(F)(F)F)C(=O)Nc2c1c(=O)[nH]c(=O)n2-c1ccc(F)cc1` (stereo not drawn), the inhibition was 7.11%. For `CSc1ccc(CCNC(=O)CCc2c(C)nc3ncnn3c2C)cc1`, the inhibition was 3.32%. `CCOc1ccccc1NS(=O)(=O)c1ccc2c(c1)oc(=O)n2C` gave an inhibition of -21.6%. For `CCc1cc2c(cc3c(=O)n(CCCC(=O)NCc4cccc(Cl)c4)ncn32)s1`, the inhibition was 13.2%. Work on `O=C(CCSCc1ccccc1Cl)NCc1ccc(F)cc1Cl` yielded an inhibition of 5.3%. With `COc1ccccc1N1CCN(C(=O)c2c(C)oc3ncn(C)c(=O)c23)CC1` the inhibition was -9.86%. For `Cc1cc2c(n1-c1ccc(C(=O)NCc3ccccc3Cl)cc1)CCCC2`, the inhibition was 11%. `O=C(CN1C(=O)CCn2nc(-c3ccccc3)cc21)NCc1ccc(Cl)cc1` was tested, and the inhibition was 4.27%. `Cc1cccc(CCNC(=O)c2cc3c(=O)n(C)c4ccccc4c3n2C)c1` was tested, and the inhibition was 15%. `O=C(CCn1cccn1)Nc1ccc(Br)cc1F` was tested, and the inhibition was 4.38%. `CCOC(=O)CSc1nc2ccc(NC(=O)c3cccc(F)c3)cc2s1` gave an inhibition of -11.6%. With `COc1ccc(CNC(=O)c2ccc3c(c2)N(Cc2c(F)cccc2Cl)C(=O)CS3)cc1` the inhibition was -11.3%. For `O=c1c(NCc2cccs2)nccn1-c1ccc(F)cc1`, the inhibition was 4.88%. Compound `Cc1nc2ccccc2n1CCc1nc2c3ccccc3nc(SCc3ccc(C#N)cc3)n2n1` has an inhibition of 26.8%. Compound `COc1cccc(NC(=O)CN(CCc2ccccc2)S(=O)(=O)c2ccc(Cl)cc2)c1` has an inhibition of -8.6%. For `Cc1cccc(-c2nc3c4ccccc4nc(NCCc4ccccc4)n3n2)c1`, the inhibition was -6.11%. `O=S(=O)(NCc1nc2cccnc2n1Cc1ccccc1Cl)c1ccc2c(c1)CCCC2` gave an inhibition of -9.69%. Compound `CCOc1ccc(NS(=O)(=O)c2ccc3[nH]c4c(c3c2)CCCCC4)cc1` has an inhibition of 10%. With `O=C(COCc1cc(-c2ccc(F)cc2)on1)Nc1cc(F)ccc1F` the inhibition was 5.21%. For `CCOc1ccc(S(=O)(=O)NCCc2c(C)[nH]c3c(Cl)cccc23)cc1C`, the inhibition was 18.2%. With `CCOC(=O)c1cc(C)nc(SC)c1C#N` the inhibition was active: 30.7%. Work on `CC(C)N(C(=O)Cn1cc(S(=O)(=O)Cc2ccc(Br)cc2)c2ccccc21)C(C)C` yielded an inhibition of -8.04%. With `O=C(c1ccc(F)cc1)N1CCC(c2nc3ccccc3s2)CC1` the inhibition was 8.46%. For `Cc1ccc(CNC(=O)c2cc(-c3ccc(C)cc3)nc3n[nH]c(-c4cccc([N+](=O)[O-])c4)c23)cc1`, the inhibition was -9.56%. With `COc1ccc(NC2=C(c3ccccc3)C(=O)c3ccccc32)cc1Cl` the inhibition was -11.8%. `CC1CCN(S(=O)(=O)c2ccc3c(c2)N(CC(=O)NCCCN2CCCCC2)C(=O)CS3)CC1` was tested, and the inhibition was 8.28%. For `Cc1cc(C)c(NC(=O)Cn2c(=O)n(CCC(=O)NCc3ccccc3Cl)c(=O)c3sccc32)c(C)c1`, the inhibition was 4.55%. `O=C(Nc1nc2ccc(F)cc2s1)c1nc(S(=O)(=O)Cc2ccccc2F)ncc1Cl` was tested, and the inhibition was -27.7%. `COc1ccc(C(=O)Nc2ccc3nc(SCC(=O)N(C)c4ccccc4)sc3c2)cc1` showed an inhibition of 4.6%. `CSc1ncc(C(=O)NCc2ccc(C)cc2)c(C)n1` was tested, and the inhibition was -18.8%. Work on `O=C(CSc1cn(CCNC(=O)c2cccc(C(F)(F)F)c2)c2ccccc12)Nc1ccc2c(c1)OCCO2` yielded an inhibition of -11.3%. With `O=C(Nc1ccc2c(c1)C(=O)NC2=O)c1ccc(S(=O)(=O)N2CCCC2)cc1` the inhibition was active: 30.8%. `Cc1ccc(Cl)cc1N1CCN(C(=O)CSc2cc(=O)n(C)c3ccccc23)CC1` showed an inhibition of 2.21%. Work on `Cc1cccc(CC(=O)Nc2ccc3nc(N4CCC(C)CC4)cc(C)c3c2)c1` yielded an inhibition of -11.6%. `CC1=C(C(=O)Nc2cc(Cl)ccc2C)C(c2sccc2C)n2ncnc2N1` (stereo not drawn) showed an inhibition of 11.4%.
